The labels stand for the following.
B1: CPEB3 Ribozyme (parent)
chain: UAACAGGGGGCCACAGCAGAAGCGUUCACGUCGCAGCCCCUGUCAGAUUCUGGUGAAUCUGCGAAUUCUGCUGUAUAUCUC

We go through 84 variants from the RNAGym collection of RNA variant scans (doi:10.1093/nar/gkz1192).

The source gives no read counts; variants with many changes may rest on few reads.

The data set covers variants of B1. Kind of data set: self-cleavage, relative activity (ratio to wild type); higher = more cleavage; in vitro, sequencing. In a few lines: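 Barcoded CPEB3 ribozyme mutants, produced by rounds of error-prone PCR, self-cleaved while being transcribed with T7 RNA polymerase for 5 hours at 37°C and during a subsequent 15 min DNase I step before EDTA was added. Sequencing of template-switched cDNA on Illumina gave cleaved and total reads, and DNA sequencing assigned barcodes to variants. Each variant's relative activity is its cleaved/total read fraction divided by the unmutated ribozyme's fraction, averaged across three batches. A variant needed a minimum of 5 reads.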
Consider A21G A65G G73A, for which the self-cleavage was found to be 0.21.
As for A20U U31C U48C A64G, the self-cleavage amounted to 0.13.
As for A21G C23U A35G U43A U66C A77G U80A, the self-cleavage was 1.09.
With A21G A45U U51A U78C, the self-cleavage turned out to be 0.12.
With A21G C23U U58C C68A U69A U74A, the self-cleavage turned out to be 0.01.
As for A20U U69C U80A, the self-cleavage was determined as 0.29.
On to A21G A65C A77U, for which the self-cleavage is 0.19.
With A21G A28G A35G, the self-cleavage turned out to be 0.7.
Take A21G A35G U60C U72C: the self-cleavage was determined as 0.54.
To A21G C27U A35C A56U U60C belongs 0.13; to A20U U31C A64C A65G, 0.5.
Regarding A21G A35G U41A U51C A57G, the self-cleavage amounted to 0.18.
As to A21G C27U U60A U67C U72A U80C, the self-cleavage was 0.08.
Consider A21C A35G U41C U60A, for which the self-cleavage came to 0.28.
On to A21G C23A U78C, for which the self-cleavage came out at 0.18.
To A21G A35G U43C A45U A56G G63U U80C belongs 0.28.
With A21C U54A A64U U72C, the self-cleavage was determined as 0.45.
In the case of A20U U31C A65G, the self-cleavage was found to be 0.15.
To A21C A57G U58A belongs 0.34.
For the variant A21G A45G U48C, the self-cleavage came out at 0.29.
For A21G A28G C40A U51A U54G U67A U72A, the self-cleavage amounted to 0.05.
Consider A20U U43C A57G G61A, for which the self-cleavage came out at 0.2.
Turning to A21G A28U U31C U41C U51C A57G U67C, the self-cleavage amounted to 0.15.
Take A21G A47U A57G C59U: the self-cleavage worked out at 0.08.
For A21G A35C C44A, the self-cleavage was found to be 0.23.
Then A21G A28G U60C A77U, with 0.28; and A21G A28G A35G G36A U41G, with 0.06; and A20U U26C U41G U49A U66C, with 0.13.
Consider A20U U58C U72C, for which the self-cleavage was found to be 0.2.
For the variant A21C U26C G42A, the self-cleavage came out at 0.06.
As to A21G A64G U72A, the self-cleavage worked out at 0.43.
For the variant A20U U60C A64G U72A, the self-cleavage came to 0.1.
Consider A20U U43A U60A, for which the self-cleavage amounted to 0.2.
Consider A20U U76C U78A, for which the self-cleavage turned out to be 0.53.
Then A21G A64U A75G, with 0.16; and A21G A28G A56G U67A A75U, with 0.08.
To A21G A64G U74C belongs 0.75; to A21C C32U C38U U43C A56G, 0.06.
For A20U U43C U48C, the self-cleavage turned out to be 0.3.
Take A21G A45U U49C U54C U60A: the self-cleavage came to 0.
For A21G C29A A47U G52A U74A U76C, the self-cleavage came to 0.14.
Consider A21G A35U U51G, for which the self-cleavage came to 0.24.
To A21G A28C A56G U69C C71U belongs 0.08.
Consider A20U U41A U43C A45U, for which the self-cleavage stood at 0.08.
For the variant A21G A45G U69C, the self-cleavage turned out to be 0.41.
Turning to A21G A57G U72A U76C, the self-cleavage came to 0.4.
With A21G A56U U69A, the self-cleavage came to 0.05.
To A20U U54C A56G belongs 0.3; to A21G A56U U60A, 0.23; to A21G C29U C32G A47U U72C, 0.04.
In the case of A21C A57G G73A, the self-cleavage is 0.27.
Then A20U U41C U49A A64U U72C, with 0.19; and A21G A45G U76C, with 0.17.
For A21G A56G U74C, the self-cleavage was 1.02.
In the case of A21G A45U U49G A64G, the self-cleavage is 0.61.
Regarding A21G A47G U49C A57G U80A, the self-cleavage is 0.06.
To A20U U48C U72G U80C belongs 0.23; to A21G A28G U31A A35U U60A, 0.2; to A21C G24A A28G U51G G55U, 0.04.
To A21G A28C U49C U72C belongs 0.11; to A20U U41G U43C U80C, 0.3; to A20U U26C U31C C38U, 0.23.
For A21C U31C U58C, the self-cleavage turned out to be 0.21.
Then A21C A35U G53U, with 0.13; and A21G A45U A47G U49C, with 0.1; and A21C U51A U58C, with 0.15.
Then A21G A35G G55C, with 0.84; and A20U U69A U72G A75U U80C, with 0.1.
Then A20U U48C U60C U74A, with 0.27; and A21G A56G U76A, with 0.75; and A21G A56G U76C, with 0.49.
Regarding A21G A56U U58C, the self-cleavage was 0.35.
Regarding A21C C23U U25C A56U U58C U67C, the self-cleavage is 0.05.
Regarding A21G C29U U31A U41C G52C A64C, the self-cleavage turned out to be 0.08.
As to A20U U26C A35U U48A U54C A65G, the self-cleavage is 0.07.
Consider A21G A35G U43C A45G, for which the self-cleavage came out at 0.57.
Turning to A20U U49C U74C, the self-cleavage worked out at 0.07.
Consider A21G A35G G36A G52C A56G, for which the self-cleavage was found to be 0.65.
To A21G C29U A35G U60G belongs 0.2; to A21G C23U G53C A75G, 0.14; to A21G A35G U51G U69C, 0.51.
Then A21G A45G A47G U60C U72C, with 0.46.
On to A20U U41A A57G U60C, for which the self-cleavage came out at 0.08.
To A20U U41A U43A belongs 0.2.
